What was measured:
[1] = Content of oxidative degradation products in atorvastatin calcium as prepared in air or in a nitrogen/inert atmosphere (HPLC, 250 nm)
[2] = Content of oxidative degradation products in atorvastatin calcium stored in air or nitrogen for 24 months at room temperature (HPLC, 250 nm); conditions: stored in air, room temperature (25° C.)
[3] = Example 5: whole preparation under inert atmosphere, HPLC 250 nm
[4] = prepared in air, response factor 1.00
[5] = prepared in nitrogen, response factor 1.00

## CC(C)c1c(C(=O)Nc2ccccc2)c(-c2ccccc2)c(-c2ccc(F)cc2)n1CC[C@@H](O)C[C@@H](O)CC(=O)[O-].CC(C)c1c(C(=O)Nc2ccccc2)c(-c2ccccc2)c(-c2ccc(F)cc2)n1CC[C@@H](O)C[C@@H](O)CC(=O)[O-].[Ca+2] (relative stereo) [atorvastatin calcium, hemicalcium salt of (R—(R*,R*))-2-(4-fluorophenyl)-β,δ-dihydroxy-5-(1-methylethyl)-3-phenyl-4((phenylamino)carbonyl)-1H-pyrol-1-heptanoic acid]
[1]; [3]
  content of ATV-cycloFP: below 0.04%
  content of ATV-cycloIP: below 0.04%
  content of ATV-epoxy dion: below 0.04%
  content of ATV-epoxy furan: below 0.04%
[1]; prepared in air, response factor 0.41
  Content of ATV-cycloIP in %: 0.215%
[1]; prepared in air, response factor 0.48
  Content of ATV-cycloFP in %: 0.193%
[1]; prepared in air, response factor 0.72
  Content of ATV-epoxy furane in %: 0.093%
[1]; [4]
  Content of ATV-cycloFP in %: 0.093%
  Content of ATV-cycloIP in %: 0.088%
  Content of ATV-epoxy dion in %: 0.069%
  Content of ATV-epoxy furane in %: 0.066%
[1]; prepared in air, response factor 1,20
  Content of ATV-epoxy dion in %: 0.058%
[1]; prepared in nitrogen, response factor 0.41
  Content of ATV-cycloIP in %: 0.032%
[1]; prepared in nitrogen, response factor 0.48
  Content of ATV-cycloFP in %: 0.038%
[1]; prepared in nitrogen, response factor 0.72
  Content of ATV-epoxy furane in %: 0.016%
[1]; [5]
  Content of ATV-cycloFP in %: 0.018%
  Content of ATV-cycloIP in %: 0.013%
  Content of ATV-epoxy dion in %: 0.016%
  Content of ATV-epoxy furane in %: 0.011%
[1]; prepared in nitrogen, response factor 1,20
  Content of ATV-epoxy dion in %: 0.013%
[2]
  Content of ATV-cycloIP in %: 0.856%
  Content of ATV-epoxy dion in %: 0.741%

Reference: patent US9453030B2, “Oxidative degradation products of atrovastatin calcium” (LEK Pharmaceuticals d.d., priority 2004, dated 2016)
